Experimental data published in the supplement of paper PMC12217912.
The other results are listed elsewhere or left out. The full chains were built here from the parent and the listed change. Values near 0.05 are background.

B1: TEV protease; numbered along this chain (parent)
chain: MGESLFKGPRDYNPISSSICHLTNESDGHTTSLYGIGFGPFIITNKHLFRRNNGTLVVQSLHGVFKVKDTTTLQQHLVDGRDMIIIRMPKDFPPFPQKLKFREPQREERICLVTTNFQTKSMSSMVSDTSCTFPSGDGIFWKHWIQTKDGQCGSPLVSTRDGFIVGIHSASNFTNTNNYFTSVPKNFMELLTNQEAQQWVSGWRLNADSVLWGGHKVFMVKPEEPFQPVKEATQL

Variants of: B1
Experiment: raw area under fraction-flipped curve 0-4 h after induction (AUC4h, not background-subtracted), DNA-recorder readout of cleavage of the substrate (dimensionless); higher = more cleavage of the substrate by the protease variant
Details: temperature: 34 °C; time window: 0-4 h after rhamnose induction
Protocol: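 In vivo DNA recorder in E. coli TOP10(DE3) ΔrhaA at 34 °C. Each TEVp single-site mutant (parent TEVp 0) is paired with a single-site variant of the 7-mer TEVs (canonical ENLYFQ|S). The substrate sits between flexible linkers in a Bxb1-sfGFP-TEVs-SsrA fusion, so cleavage stabilises Bxb1 and speeds flipping of a recombination array, read by NGS. The value is the raw area under the fraction-flipped curve over 0-4 h after rhamnose induction (AUC4h), with ≥20 reads per time point. It is not background-subtracted; inactive controls average about 0.047.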
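Also: Bxb1 expression induced with 0.2% (w/v) L-rhamnose at OD600 near 0.5, cultures sampled hourly, flipped fraction per protease–substrate barcode pair counted by paired-end Illumina sequencing.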

| Variant | area with substrate ENLYFQA | area with substrate ENLYFQC | area with substrate ENLYFQK | area with substrate ENLYFQP | area with substrate ENLYFQR | area with substrate ENLYFQS | area with substrate ENLYFQT | area with substrate ENLYFQF | area with substrate ENLYFQI | area with substrate ENLYFQL |
| --- | --- | --- | --- | --- | --- | --- | --- | --- | --- | --- |
| F95N | 0.104 | 0.101 | 0.0651 | 0.048 | 0.0548 | 0.088 | 0.0252 |  |  |  |
| F95L | 0.038 |  | 0.0611 |  |  | 0.0948 |  | 0.069 | 0.0564 | 0.0593 |
| L5H | 0.0928 |  |  |  |  | 0.114 | 0.0581 |  | 0.0618 | 0.066 |
| F65P | 0.052 | 0.0524 | 0.0495 | 0.0412 | 0.0496 | 0.0493 | 0.0462 |  |  |  |
| F65Q | 0.0873 | 0.0836 |  |  |  | 0.0906 |  |  | 0.0488 | 0.0465 |
| I85A | 0.0606 |  |  |  | 0.0584 | 0.0684 |  |  | 0.0558 | 0.0447 |
| I85H | 0.0678 | 0.0568 | 0.052 |  | 0.0527 | 0.0597 | 0.0575 |  |  |  |
| P89A | 0.087 |  |  | 0.0652 | 0.0767 | 0.0901 |  |  | 0.0553 | 0.0599 |
| P89V | 0.0926 |  | 0.0668 | 0.041 | 0.0493 | 0.0776 | 0.0475 |  | 0.0579 |  |
| P93C | 0.105 | 0.127 | 0.0769 | 0.0758 | 0.0634 | 0.1 | 0.0581 |  |  | 0.0746 |
| K98V | 0.0786 | 0.111 |  |  | 0.0611 | 0.113 |  | 0.0815 | 0.0624 | 0.0587 |
| E3W | 0.0919 | 0.115 | 0.0645 |  |  | 0.108 | 0.0674 | 0.103 | 0.0528 | 0.0698 |
| I15G | 0.0734 | 0.0866 |  | 0.0379 | 0.0691 | 0.0716 | 0.0547 |  | 0.0588 | 0.0553 |
| F38V | 0.0546 | 0.0897 |  |  | 0.0286 | 0.0938 |  |  | 0.0577 | 0.0591 |
| K66H | 0.162 |  | 0.0653 |  |  | 0.109 | 0.0612 |  | 0.0654 |  |
| K66Y | 0.0784 | 0.127 |  | 0.0619 |  | 0.102 | 0.0605 |  | 0.0587 | 0.0567 |

Same assay, conditions: temperature: 34 °C; time window: 0-4 h after rhamnose induction

| Variant | area with substrate ENLYFQW | area with substrate ENLYFQE | area with substrate ENLYFQG | area with substrate ENLYFQH | area with substrate ENLYFQM | area with substrate ENLYFQN | area with substrate ENLYFQV | area with substrate ENLYFQY | area with substrate ENLYFQD | area with substrate ENLYFQQ |
| --- | --- | --- | --- | --- | --- | --- | --- | --- | --- | --- |
| F95L | 0.0794 |  |  |  |  |  |  |  |  |  |
| L5H |  | 0.0993 | 0.0953 | 0.087 | 0.0924 |  |  |  |  |  |
| F65P | 0.0601 |  | 0.0572 | 0.0532 | 0.0486 | 0.0412 | 0.0465 | 0.0367 |  |  |
| F65Q | 0.0769 |  |  | 0.0742 | 0.0822 |  |  |  | 0.0632 |  |
| I85A | 0.0445 |  |  | 0.0696 | 0.0506 | 0.0668 |  |  |  |  |
| I85H | 0.054 |  |  |  | 0.0723 | 0.0495 |  |  | 0.0488 |  |
| P89A |  |  |  | 0.0548 |  | 0.0661 | 0.0544 |  |  |  |
| P89V | 0.0635 |  |  | 0.0608 | 0.0603 |  |  | 0.0624 |  |  |
| P93C | 0.0639 |  |  | 0.0731 |  |  |  |  |  |  |
| K98V | 0.0912 |  |  | 0.0906 | 0.0868 |  |  |  | 0.0704 |  |
| E3W | 0.0665 |  | 0.124 | 0.0841 | 0.105 | 0.0822 |  | 0.0709 | 0.0683 |  |
| I15G | 0.0525 |  | 0.156 | 0.0562 | 0.061 |  | 0.0649 | 0.0407 | 0.0735 |  |
| F38V |  |  |  | 0.0777 |  |  |  | 0.0542 |  |  |
| K66H | 0.0575 |  | 0.0905 |  | 0.103 | 0.0935 |  | 0.0876 |  | 0.0755 |
| K66Y |  | 0.0693 | 0.0997 |  | 0.0914 | 0.0795 |  | 0.0842 | 0.0658 |  |
